Reference: article PMC7396842
Like-named read-outs stand apart in the source and are kept apart here. Results are given in words; binding and its absence hold for the method and conditions named. Binding seen in cells or lysates may run through a third protein. Some binding calls cover weakened binding; strength is not graded here. For some assays here: Where a sequence is shown, tags or fusion partners need not be part of it.

The chains behind the UniProt entries cited, without tags or fusion partners.
UniProt O95166: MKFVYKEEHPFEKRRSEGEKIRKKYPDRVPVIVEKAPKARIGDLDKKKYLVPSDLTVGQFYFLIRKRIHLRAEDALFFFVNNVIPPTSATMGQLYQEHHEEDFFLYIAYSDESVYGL
UniProt O95292: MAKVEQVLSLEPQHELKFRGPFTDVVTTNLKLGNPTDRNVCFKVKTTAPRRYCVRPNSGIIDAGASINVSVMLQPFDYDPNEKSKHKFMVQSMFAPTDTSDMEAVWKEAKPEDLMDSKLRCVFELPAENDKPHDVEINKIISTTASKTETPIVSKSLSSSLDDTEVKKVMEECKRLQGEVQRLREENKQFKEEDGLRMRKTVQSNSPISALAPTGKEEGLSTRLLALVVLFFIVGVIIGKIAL

Key:
GST-GABARAPL2 (human) [1] = molecular target: GST-GABARAPL2 (human) (UniProt P60520); test: pull-down; GST fusion protein from E. coli on Glutathione Sepharose beads; 35S-labelled in vitro translated Myc-tagged protein, precleared, incubated 1 h at 4 °C in NETN buffer (50 mM Tris pH 8.0, 150 mM NaCl, 1 mM EDTA, 0.5% NP-40); five washes; autoradiography; only the target purified
[2] = molecular target: T1, EGFP-CALCOCO1 (full length), expressed in HEK293 cells (UniProt Q9P1Z2); test: co-IP; EGFP-CALCOCO1 and Myc-tagged proteins transiently co-expressed in HEK293 cells; EGFP-CALCOCO1 precipitated with GFP-TRAP from lysates in modified RIPA buffer (50 mM Tris-HCl pH 7.4, 120 mM NaCl, 1 mM EDTA, 1% NP-40, 0.25% Triton X-100), 4 °C; anti-Myc blot
T1 sequence: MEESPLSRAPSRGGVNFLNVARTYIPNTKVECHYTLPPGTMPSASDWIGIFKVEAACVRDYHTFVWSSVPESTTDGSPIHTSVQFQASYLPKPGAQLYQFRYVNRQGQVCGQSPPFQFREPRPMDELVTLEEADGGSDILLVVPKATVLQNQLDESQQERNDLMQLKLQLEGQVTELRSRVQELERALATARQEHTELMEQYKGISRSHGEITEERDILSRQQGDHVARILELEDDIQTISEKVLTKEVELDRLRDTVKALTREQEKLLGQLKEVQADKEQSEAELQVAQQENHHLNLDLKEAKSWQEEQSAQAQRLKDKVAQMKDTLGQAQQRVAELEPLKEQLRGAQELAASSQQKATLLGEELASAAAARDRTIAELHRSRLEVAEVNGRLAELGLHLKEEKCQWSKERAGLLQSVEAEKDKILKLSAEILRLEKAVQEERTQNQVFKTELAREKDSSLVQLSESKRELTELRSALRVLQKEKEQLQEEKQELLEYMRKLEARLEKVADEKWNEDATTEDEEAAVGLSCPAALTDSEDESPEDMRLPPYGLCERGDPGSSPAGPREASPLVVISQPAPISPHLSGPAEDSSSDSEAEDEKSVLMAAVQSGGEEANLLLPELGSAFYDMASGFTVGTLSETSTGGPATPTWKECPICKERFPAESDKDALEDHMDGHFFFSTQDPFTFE

[3] = molecular target: T2, GST-CALCOCO1 ΔLIR + Δ623–691 (UniProt Q9P1Z2); test: pull-down; GST-tagged CALCOCO1 constructs on beads; HEK293 cell extracts; endogenous proteins detected by blot; only the target purified
T2 sequence: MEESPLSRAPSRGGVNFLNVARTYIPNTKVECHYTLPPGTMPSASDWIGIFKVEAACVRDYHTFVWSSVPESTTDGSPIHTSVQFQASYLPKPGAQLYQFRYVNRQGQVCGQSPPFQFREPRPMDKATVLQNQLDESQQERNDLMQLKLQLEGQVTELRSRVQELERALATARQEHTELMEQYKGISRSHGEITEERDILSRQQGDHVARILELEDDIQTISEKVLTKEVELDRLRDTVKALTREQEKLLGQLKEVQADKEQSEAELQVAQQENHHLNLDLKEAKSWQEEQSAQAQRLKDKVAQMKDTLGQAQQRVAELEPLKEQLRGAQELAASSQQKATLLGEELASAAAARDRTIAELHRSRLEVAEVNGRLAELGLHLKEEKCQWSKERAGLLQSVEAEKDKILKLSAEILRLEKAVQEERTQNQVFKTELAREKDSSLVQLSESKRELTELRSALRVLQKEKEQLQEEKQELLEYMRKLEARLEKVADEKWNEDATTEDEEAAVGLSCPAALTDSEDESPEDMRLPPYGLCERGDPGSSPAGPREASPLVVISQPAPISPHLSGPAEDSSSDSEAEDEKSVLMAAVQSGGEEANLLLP

GST-CALCOCO1 (WT) = molecular target: T3, GST-CALCOCO1 (WT) (UniProt Q9P1Z2); test: as above
T3 sequence: T1 sequence

GST-GABARAPL2 (human) [4] = molecular target: GST-GABARAPL2 (human) (UniProt P60520); test: pull-down; GST-tagged ATG8 family proteins on beads; extracts of cells transiently transfected with Myc-CALCOCO1; anti-Myc blot; only the target purified
GST-GABARAP (human) [5] = molecular target: GST-GABARAP (human) (UniProt O95166); test: as above
[6] = molecular target: T1, EGFP-CALCOCO1 (full length), expressed in HEK293 cells; test: co-IP; EGFP-CALCOCO1 and Myc-tagged proteins transiently co-expressed in HEK293 cells; EGFP-CALCOCO1 precipitated with GFP-TRAP from lysates in modified RIPA buffer (50 mM Tris-HCl pH 7.4, 120 mM NaCl, 1 mM EDTA, 1% NP-40, 0.25% Triton X-100), 4 °C; anti-Myc blot; remark: listed apart in the source
[7] = molecular target: T4, GFP-CALCOCO1 (full length), in vitro translated (UniProt Q9P1Z2); test: co-IP; 35S-GFP-CALCOCO1 co-transcribed/translated in vitro with 35S-Myc constructs; GFP-TRAP immunoprecipitation; SDS-PAGE and autoradiography
T4 sequence (chain, 35S-methionine label): T1 sequence

GST-GABARAPL2 (human) [8] = molecular target: GST-GABARAPL2 (human) (UniProt P60520); test: pull-down; GST fusion protein from E. coli on Glutathione Sepharose beads; 35S-labelled in vitro translated Myc-tagged protein, precleared, incubated 1 h at 4 °C in NETN buffer (50 mM Tris pH 8.0, 150 mM NaCl, 1 mM EDTA, 0.5% NP-40); five washes; autoradiography; only the target purified; remark: listed apart in the source
GST-LC3C (human) = GST-LC3C (human) (UniProt Q9BXW4); test: as above
GST-GABARAP (human) [9] = molecular target: GST-GABARAP (human) (UniProt O95166); test: as above

Question: For “Myc-p62, in vitro translated (from UniProt Q13501 1-440)”, which binding (GST-GABARAPL2 (human) [1]) is on record?
Answer: binds

Question: For “Myc-VAPB, expressed in HEK293 cells (from UniProt O95292 1-243)”, which binding [2] is on record?
Answer: binds

Question: How did the binding [3] turn out when “endogenous GABARAP of HEK293 cell extracts (from UniProt O95166 1-117)” was run?
Answer: no binding

Question: What about the binding (GST-CALCOCO1 (WT)) of the same molecule?
Answer: binds

B1: Myc-CALCOCO1 (full length), expressed in cells (protein, UniProt Q9P1Z2 1-691)
chain: T1 sequence
Question: What does the source list for B1?
Answer: binding (GST-GABARAPL2 (human) [4]): binds; binding (GST-GABARAP (human) [5]): binds; binding [6]: binds

B2: Myc-CALCOCO1 (full length), in vitro translated (protein, UniProt Q9P1Z2 1-691)
chain: T1 sequence
modifications: 35S-methionine label
Question: For B2, which binding [7] is on record?
Answer: binds

Question: And the binding (GST-GABARAPL2 (human) [8])?
Answer: binds

Question: And the binding (GST-LC3C (human))?
Answer: binds weakly

Question: And the binding (GST-GABARAP (human) [9])?
Answer: binds
